The source of these data is the supplement of paper PMC3334620.

Over roughly 33,000 sequences, “E-score (-0.5 to 0.5)” has its median near -0.043; the highest 2% begin near 0.37. Some of the results follow.

This experiment addresses T1, Upc2 (UniProt Q12151).
T1 sequence: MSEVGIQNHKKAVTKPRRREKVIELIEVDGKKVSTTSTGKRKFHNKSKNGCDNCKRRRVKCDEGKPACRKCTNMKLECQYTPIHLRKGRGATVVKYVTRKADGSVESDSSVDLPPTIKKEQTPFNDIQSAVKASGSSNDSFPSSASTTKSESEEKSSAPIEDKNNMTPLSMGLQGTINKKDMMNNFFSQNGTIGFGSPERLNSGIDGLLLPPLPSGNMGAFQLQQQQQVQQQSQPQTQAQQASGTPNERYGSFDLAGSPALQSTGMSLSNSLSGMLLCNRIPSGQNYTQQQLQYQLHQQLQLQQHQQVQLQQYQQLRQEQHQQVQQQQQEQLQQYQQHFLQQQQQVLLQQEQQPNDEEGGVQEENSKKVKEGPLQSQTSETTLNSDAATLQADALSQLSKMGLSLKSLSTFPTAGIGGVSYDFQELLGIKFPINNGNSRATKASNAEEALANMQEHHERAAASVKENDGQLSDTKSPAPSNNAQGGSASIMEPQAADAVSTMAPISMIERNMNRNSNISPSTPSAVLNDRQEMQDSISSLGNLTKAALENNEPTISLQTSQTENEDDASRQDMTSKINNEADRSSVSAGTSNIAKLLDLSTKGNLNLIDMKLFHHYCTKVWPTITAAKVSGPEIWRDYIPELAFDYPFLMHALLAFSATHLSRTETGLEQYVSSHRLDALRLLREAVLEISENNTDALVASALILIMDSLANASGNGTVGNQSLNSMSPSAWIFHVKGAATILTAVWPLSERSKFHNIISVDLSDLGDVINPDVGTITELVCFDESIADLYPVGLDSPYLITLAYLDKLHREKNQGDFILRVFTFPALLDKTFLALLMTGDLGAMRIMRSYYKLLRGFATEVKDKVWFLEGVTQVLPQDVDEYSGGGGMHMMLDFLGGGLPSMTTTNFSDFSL
As to the kind of experiment: PBM E-score (8-mer binding enrichment) (E-score (-0.5 to 0.5)); higher = stronger / more preferred TF binding; most listed sequences are background and not binding sites. The note with it: protein concentration: 200 nM; construct: GST-full length. In outline: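 Yeast transcription factors, full-length or as DNA-binding domains, were expressed with a GST tag using PURExpress in vitro transcription/translation. At about 100-200 nM they were applied to universal all-10-mer Agilent arrays, double-stranded by primer extension on fresh or once-stripped slides. Fluorescent anti-GST detected bound protein, and masliner normalised the scans. E-scores for ungapped eight-base words, pooled with reverse complements, came from the Universal PBM Analysis Suite.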
For CCAATAAA, the “PBM E-score” value was -0.118. As to GACCTGTA, the “PBM E-score” value was 0.228. For CTGGTTGA, the “PBM E-score” value is -0.308. With GGAAGCTA the figure was -0.141. The same measure for GTAGCTGA: -0.00218. The same measure for CGAAGGTA: 0.121. Consider GCACAGAC, for which the “PBM E-score” value was -0.0418. With ACATTTGG the figure was -0.28; with ATAAAGGA, -0.202; with AAAAGAAC, 0.111. The same measure for CTCGATAA: 0.156. The same measure for CCCCGTCG: 0.108; for AGACACAT: -0.104; for GTGCAAGA: 0.0734.

ACTCACAT: the “PBM E-score” value was -0.077. The same measure for ATTATTCC: 0.0868; for ACCGTTCA: 0.347. The same measure for ACGCAGAC: 0.0575; for ATGGGTGG: -0.279; for ATGTGACG: -0.145. The same measure for GAAAGTGC: -0.189; for CTTTAAGA: 0.111. Consider GAGCGACA, for which the “PBM E-score” value was found to be 0.232. With GCTGAGCA the figure was -0.104; with GCCCGCCC, 0.0386; with GTTAACCA, 0.0416.

In the case of CACAGTAA, the “PBM E-score” value is 0.093.

Consider CTCTCGAA, for which the “PBM E-score” value was -0.0265. With GTGAACTA the figure was 0.142; with CGGAAGAG, -0.146; with GGATATGA, 0.00992. The same measure for AAAAATAC: 0.111; for ACAAACTC: 0.0429. The same measure for ACCTACGG: -0.259; for AACTAGAC: 0.0567; for AGCTCGAG: -0.0221.

In the case of GAATTTCC, the “PBM E-score” value turned out to be 0.0147. The same measure for ATCAGGCC: -0.0224; for GAGCGCAC: 0.0345; for GTCATATA: -0.0244.

Regarding AAGTCGGA, the “PBM E-score” value worked out at 0.117. AATCAGAT: the “PBM E-score” value was -0.162. Regarding TGCCGCCA, the “PBM E-score” value is -0.172.

On to GAAGGAAC, for which the “PBM E-score” value is 0.0488. With CACCCGGC the figure was -0.287; with GTCCGGAC, -0.00114; with CTCGCCAG, -0.0473. For the sequence GTTCCAAC, the “PBM E-score” value is -0.0469. With ACTCGCTG the figure was -0.0156. Regarding ACCTCAGG, the “PBM E-score” value was -0.343. The same measure for ACCAATCG: 0.132.

Consider AGAATGAC, for which the “PBM E-score” value was -0.169.

On to CAGAGGCG, for which the “PBM E-score” value is -0.18.

In the case of AAGTGAAT, the “PBM E-score” value was -0.0479. The same measure for CAGTCTTC: -0.303; for TAGTTACA: -0.0446; for GCGGACAA: -0.0254. Regarding AAGAGTTG, the “PBM E-score” value was 0.117.

As for AGTATGCA, the “PBM E-score” value is -0.3. With CACTCGAA the figure was 0.0152; with CTCTACCA, -0.151; with AGTAGTGA, -0.217. With AGAGGGAT the figure was -0.0529; with AGGGAGGG, -0.209. Take GGCTATCA: the “PBM E-score” value is -0.0833. The same measure for CGATACTA: 0.151; for AGCTTCGG: -0.0342.

With ATGATTGC, the “PBM E-score” value is -0.0185. With CACTATCG, the “PBM E-score” value is 0.119. With TGATGGCA the figure was -0.146; with CTCCGCAA, -0.146.

Consider AGAAGATA, for which the “PBM E-score” value is -0.0372.

Take CGTTTATA: the “PBM E-score” value came to 0.45. For CCATTAAA, the “PBM E-score” value was -0.135. Turning to CACTGGCC, the “PBM E-score” value was -0.197. With CCTCGAGG the figure was -0.177; with CTTCCGGC, -0.226. The same measure for GATAAGCA: 0.00356.

Consider ACGCAGCA, for which the “PBM E-score” value turned out to be 0.0683.

AGGCACAC: the “PBM E-score” value was -0.226.

Regarding CATCTGAG, the “PBM E-score” value was -0.103. The same measure for AGGGGTGC: -0.349; for GTGAGAGA: -0.301. With ACGTGACC the figure was -0.0551; with ACCCTGAG, -0.0885; with ATAACTAG, -0.122.
